Assay results from patent US20250368649A1, “TETRAHYDROPYRIDOPYRIMIDINE PAN-KRAS INHIBITORS” (Mirati Therapeutics, Inc., priority 2022, published 2025).

Assays:
[1] = target: KRas G12C (Homo sapiens, UniProt P01116, G12C); format: binding; conditions: for inhibition at 0.01 µM: single point, 10 nM compound, read-out: Binding to KRas (% inhibition at 10 nM) G12C; for IC50: TR-FRET displacement, read-out: Binding to KRas (IC50 nM) G12C
[2] = target: KRas G12S (Homo sapiens, UniProt P01116, G12S); format: binding; conditions: for inhibition at 0.01 µM: single point, 10 nM compound, read-out: Binding to KRas (% inhibition at 10 nM) G12S; for IC50: TR-FRET displacement, read-out: Binding to KRas (IC50 nM) G12S
[3] = target: KRas Q61H (Homo sapiens, UniProt P01116, Q61H); test: KRas binding assay (TR-FRET displacement), KRas Q61H; conditions: for inhibition at 0.01 µM: single point, 10 nM compound; for IC50: TR-FRET displacement
[4] = target: KRas WT (Homo sapiens, UniProt P01116); test: KRas binding assay (TR-FRET displacement), KRas WT; conditions: for inhibition at 0.01 µM: single point, 10 nM compound; for IC50: TR-FRET displacement
[5] = target: KRas G12A (Homo sapiens, UniProt P01116, G12A); format: binding; conditions: for inhibition at 0.01 µM: single point, 10 nM compound, read-out: Binding to KRas (% inhibition at 10 nM) G12A; for IC50: TR-FRET displacement, read-out: Binding to KRas (IC50 nM) G12A
[6] = target: KRas G13D (Homo sapiens, UniProt P01116, G13D); format: binding; conditions: for inhibition at 0.01 µM: single point, 10 nM compound, read-out: Binding to KRas (% inhibition at 10 nM) G13D; for IC50: TR-FRET displacement, read-out: Binding to KRas (IC50 nM) G13D
[7] = test system: PSN1 cells; test: Inhibition of KRas-mediated phosphorylation of ERK (Cisbio HTRF pERK), PSN1 cells; format: cell-based; conditions: Homo sapiens, PSN1, 3 h, 3 hour compound incubation, Cisbio pERK HTRF
Protocol: (§1) Inhibition of KRas Phosphorylation of ERK (HTRF) by Exemplary Compounds of Formula (I) Cisbio HTRF Advanced pERK Assay Catalog #64AERPEH • Cells: MKN1, PSN1 • Procedure: • Day 1: Seed 6,000 cells/well -25 µl/well in 384-well white solid bottom plate; RPM1_10% FBS.

[8] = test system: H727 cells; test: Inhibition of KRas-mediated phosphorylation of ERK (Cisbio HTRF pERK), H727 cells; format: cell-based; conditions: Homo sapiens, NCI-H727, 3 h, 3 hr compound incubation, Cisbio pERK HTRF
[9] = test system: ASPC1 cells; test: Inhibition of KRas-mediated phosphorylation of ERK (Cisbio HTRF pERK), ASPC1 cells; format: cell-based; conditions: Homo sapiens, ASPC1, 3 h, AsPC-1 cells; 3 hr compound incubation; Cisbio pERK HTRF
[10] = test system: H358 cells; test: Inhibition of KRas-mediated phosphorylation of ERK (Cisbio HTRF pERK), H358 cells; format: cell-based; conditions: Homo sapiens, NCI-H358, 3 h, 3 hr compound incubation, Cisbio pERK HTRF
[11] = test system: A549 cells; test: Inhibition of KRas-mediated phosphorylation of ERK (Cisbio HTRF pERK), A549 cells; format: cell-based; conditions: Homo sapiens, A549, 3 h, 3 hr compound incubation, Cisbio pERK HTRF
[12] = test system: MKN1 cells; test: Inhibition of KRas-mediated phosphorylation of ERK (Cisbio HTRF pERK), MKN1 cells; format: cell-based; conditions: Homo sapiens, MKN-1, 3 hour compound incubation
Protocol: as §1

[13] = test system: H460 cells; test: Inhibition of KRas-mediated phosphorylation of ERK (Cisbio HTRF pERK), H460 cells; format: cell-based; conditions: Homo sapiens, NCI-H460, 3 h, 3 hr compound incubation, Cisbio pERK HTRF
[14] = test system: HCT116 cells; test: Inhibition of KRas-mediated phosphorylation of ERK (Cisbio HTRF pERK), HCT116 cells; format: cell-based; conditions: Homo sapiens, HCT-116, 3 h, 3 hr compound incubation, Cisbio pERK HTRF

SMILES	inhibition at 0.01 µM [1]	inhibition at 0.01 µM [2]	inhibition at 0.01 µM [3]	inhibition at 0.01 µM [4]	inhibition at 0.01 µM [5]	inhibition at 0.01 µM [6]	IC50 [7]	IC50 [8]	IC50 [9]	IC50 [10]	IC50 [11]	IC50 [12]	IC50 [13]	IC50 [14]	IC50 [1]	IC50 [2]	IC50 [3]	IC50 [4]	IC50 [5]	IC50 [6]
CCc1c(F)ccc2cc(O)cc(N3CCc4c(nc(OC[C@@]56CCCN5C[C@H](F)C6)nc4N4CCCn5nc(C(=O)N6CC7CCC6C7)cc5C4)C3)c12 (stereo partly drawn) [Example 307, 2-azabicyclo[2.2.1]heptan-2-yl(5-(7-(8-ethyl-7-fluoro-3-hydroxynaphthalen-1-yl)-2-(((2R,7aS)-2-fluorohexahydro-1H-pyrrolizin-7a-yl)methoxy)-5,6,7,8-tetrahydropyrido[3,4-d]pyrimidin-4-yl)-5,6,7,8-tetrahydro-4H-pyrazolo[1,5-a][1,4]diazepin-2-yl)methanone]	98%	97%	96%	95%	94%	94%														
CCc1c(F)ccc2cc(O)cc(N3CCc4c(nc(OC[C@@]56CCCN5C[C@H](F)C6)nc4N4CCCn5nc(C(=O)N6CCOCC6)c(Cl)c5C4)C3)c12 [Example 413, (3-chloro-5-(7-(8-ethyl-7-fluoro-3-hydroxynaphthalen-1-yl)-2-(((2R,7aS)-2-fluorohexahydro-1H-pyrrolizin-7a-yl)methoxy)-5,6,7,8-tetrahydropyrido[3,4-d]pyrimidin-4-yl)-5,6,7,8-tetrahydro-4H-pyrazolo[1,5-a][1,4]diazepin-2-yl)(morpholino)methanone]	100%	99%	100%	99%	98%	99%	2180 nM	3 nM	1 nM	1 nM	4 nM	0.4 nM	5 nM	23 nM						

Second part, the compound after the results:

inhibition at 0.01 µM [1]	inhibition at 0.01 µM [2]	inhibition at 0.01 µM [3]	inhibition at 0.01 µM [4]	inhibition at 0.01 µM [5]	inhibition at 0.01 µM [6]	IC50 [7]	IC50 [8]	IC50 [9]	IC50 [10]	IC50 [11]	IC50 [12]	IC50 [13]	IC50 [14]	IC50 [1]	IC50 [2]	IC50 [3]	IC50 [4]	IC50 [5]	IC50 [6]	SMILES
98%	99%	99%	99%	97%	99%		50 nM	362 nM						< 2 nM	< 2 nM	< 2 nM	< 2 nM	< 2 nM	< 2 nM	O=C1NC(=O)[C@]2(CCCN(c3nc(OC[C@@]45CCCN4C[C@H](F)C5)nc4c3CCN(c3c(C5CC5)c(Cl)cc5[nH]ncc35)C4)C2)N1 [Example 470, (R)-7-(7-(6-chloro-5-cyclopropyl-1H-indazol-4-yl)-2-(((2R,7aS)-2-fluorohexahydro-1H-pyrrolizin-7a-yl)methoxy)-5,6,7,8-tetrahydropyrido[3,4-d]pyrimidin-4-yl)-1,3,7-triazaspiro[4.5]decane-2,4-dione]
98%	98%	94%	94%	95%	93%															CCc1c(F)ccc2cc(O)cc(N3CCc4c(nc(OC[C@@]56CCCN5C[C@H](F)C6)nc4N4CCCn5nc(C(N)=O)cc5C4)C3)c12 [Example 308, 5-(7-(8-ethyl-7-fluoro-3-hydroxynaphthalen-1-yl)-2-(((2R,7aS)-2-fluorohexahydro-1H-pyrrolizin-7a-yl)methoxy)-5,6,7,8-tetrahydropyrido[3,4-d]pyrimidin-4-yl)-5,6,7,8-tetrahydro-4H-pyrazolo[1,5-a][1,4]diazepine-2-carboxamide]
						1000 nM	280 nM	631 nM	24 nM	369 nM	22.4 nM	156 nM	196 nM	< 2 nM	< 2 nM	< 2 nM	< 2 nM	< 2 nM	< 2 nM	C[C@@H]1C[C@@H]1c1c(Cl)cc2[nH]ncc2c1N1CCc2c(nc(OC[C@@]34CCCN3C[C@H](F)C4)nc2N2CCC[C@]3(C2)NC(=O)NC3=O)C1 [Example 448, (R)-7-(7-(6-chloro-5-((1S,2R)-2-methylcyclopropyl)-1H-indazol-4-yl)-2-(((2R,7aS)-2-fluorohexahydro-1H-pyrrolizin-7a-yl)methoxy)-5,6,7,8-tetrahydropyrido[3,4-d]pyrimidin-4-yl)-1,3,7-triazaspiro[4.5]decane-2,4-dione]
